Experimental data published in article PMC6919601, “Identification of Plasmodium dipeptidyl aminopeptidase allosteric inhibitors by high throughput screening” (PLoS ONE, 2019).
Hit rate of the full screen: of about 110,000 compounds, about 230 (0.21%) showed an effect of 50% or more. The list shows a part of the results.

biological target: DPAP1 (Plasmodium falciparum, UniProt Q8IIJ9); experiment: primary screen, percent inhibition; read by cleavage of a fluorogenic dipeptide substrate; higher = more effect of the substance; design: species or system P. falciparum D10 trophozoite lysates; single well
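Also: 30 min substrate incubation versus DMSO and 10 µM JCP410 controls.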

DPAP1, sequence (Q8IIJ9 whole entry, looked up): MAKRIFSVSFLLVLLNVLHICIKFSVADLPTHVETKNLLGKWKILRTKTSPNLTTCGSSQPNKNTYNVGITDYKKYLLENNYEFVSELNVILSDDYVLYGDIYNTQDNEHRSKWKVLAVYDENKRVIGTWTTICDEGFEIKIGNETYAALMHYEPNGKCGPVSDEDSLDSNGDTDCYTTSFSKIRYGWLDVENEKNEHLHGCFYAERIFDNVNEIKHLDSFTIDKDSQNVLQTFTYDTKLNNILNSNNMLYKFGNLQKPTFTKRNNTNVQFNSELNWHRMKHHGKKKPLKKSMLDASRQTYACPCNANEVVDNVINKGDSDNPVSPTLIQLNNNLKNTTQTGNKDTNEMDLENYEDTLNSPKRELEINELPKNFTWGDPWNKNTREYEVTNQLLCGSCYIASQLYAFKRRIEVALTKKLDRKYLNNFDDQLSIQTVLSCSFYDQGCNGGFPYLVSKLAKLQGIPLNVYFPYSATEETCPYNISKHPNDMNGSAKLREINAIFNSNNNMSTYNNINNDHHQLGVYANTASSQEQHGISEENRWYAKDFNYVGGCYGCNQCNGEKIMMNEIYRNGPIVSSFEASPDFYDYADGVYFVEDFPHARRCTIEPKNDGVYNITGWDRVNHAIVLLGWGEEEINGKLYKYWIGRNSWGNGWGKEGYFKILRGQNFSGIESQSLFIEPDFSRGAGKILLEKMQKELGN

| SMILES | % Inhibition @ 10 uM [%] |
| --- | --- |
| CCn1cc(NC(=O)NC2CCCCCC2)c(=O)c2ccc(C)nc21 | 2.29 |
| COc1ccc(S(=O)(=O)NCc2ccc(C(=O)NCc3ccc(Cl)cc3)cc2)cc1 | 0.208 |
| Brc1cccc(CSc2nc3ccccc3[nH]2)c1 | -4.18 |
| COC(=O)c1ccccc1-c1ccc(/C=C2/C(=N)N3N=C(COc4ccccc4)SC3=NC2=O)o1 | -1.6 |
| COc1cc(OC)nc(Oc2ccccc2CNc2ncccc2C)n1 | -2.34 |
| Cn1c2ccc(Cl)cc2c2cc(C(=O)C(F)(F)F)ccc21 | -1.41 |
| C/C(=N\OC(=O)c1ccccc1)c1cccs1 | 4.42 |
| CCN(CC)S(=O)(=O)c1ccc(/N=C/c2c(C)nn(-c3ccc(C)cc3C)c2O)cc1 | 3.05 |
| Cc1ccc(-c2ccc(/C=C3\C(=N)N4N=C(S(C)(=O)=O)SC4=NC3=O)o2)cc1Cl | -1.58 |
| CC(C)(C)c1ccc(C(=O)Nc2nnc(Cc3ccccc3)s2)cc1 | 4.15 |
| Cc1ccccc1-n1nnnc1-c1ccccc1 | 1.13 |
| O=C1Nc2ccccc2/C1=C\c1nc2ccccc2c(=O)n1-c1ccccc1 | 36.1 |
| Cc1ccc(C)c(NS(=O)(=O)c2ccc(F)cc2)c1 | 2.46 |
| COCCn1c(=N)c(C#N)cc2c(=O)n3cccc(C)c3nc21 | 3.6 |
| O=C(CSC(c1ccccc1)c1ccccc1)N1CCCCC1 | 2.51 |
| CC(C)Oc1ccc(C(=O)N(Cc2ccccc2F)C2CCS(=O)(=O)C2)cc1 (centres unmarked) | 3.62 |
| COc1ccc(Cl)cc1C(=O)Nc1nnc(C)s1 | -8.2 |
| COc1ccc(Cl)cc1NC(=O)c1ccc(Br)cc1 | 0.379 |
| Cc1cccc(C(NC(N)=O)c2ccccc2)c1 (centres unmarked) | 5 |
| O=C(NCc1ccc2c(c1)OCO2)c1cc(-c2ccccc2)[nH]n1 | -3.1 |
| N#CC1=C(N)Oc2nc(O)nc(O)c2C1c1ccccc1 (centres unmarked) | 1.17 |
| O=C(CCCO)NCCc1nc2ccccc2n1Cc1c(F)cccc1Cl | -3.08 |
| Cc1nn(Cc2c(Cl)cccc2Cl)c(C)c1NC(=O)c1cccs1 | -4.43 |
| Cc1nc(N2CCN(C)CC2)c2c(C)c(C(=O)O)sc2n1 | -4.74 |
| CC(C)c1nc2sc3c(N4CCOCC4)ncnc3c2c2c1CCCC2 | 3.53 |
| CCCS(=O)(=O)N1CCCC(C(=O)NC(C)c2ccc3c(c2)OCCO3)C1 (centres unmarked) | -1.79 |

| SMILES | % Inhibition @ 10 uM [%] |
| --- | --- |
| Cc1ccc(CCNCc2c(C(=O)O)[nH]c3ccccc23)cc1 | -3.21 |
| N#CC1=C(N)N(c2c(F)cccc2F)C2=C(C(=O)CCC2)C1c1ccccc1F (centres unmarked) | -5 |
| O=C(CN1CC(c2ccccc2)CC1=O)NCCc1ccc(Cl)cc1 (centres unmarked) | 0.738 |
| Cc1cc(N2CCC(C(=O)NCCCOC(C)C)CC2)n2nc(C)c(-c3ccc(Cl)cc3)c2n1 | 1.55 |
| Cc1cc(C=C2C(=O)N(C)C(=O)N(C)C2=O)c(C)n1-c1ccc(Br)cc1 | 20.5 |
| CCOc1cccc2c1OC1(CCC(C)CC1)N1N=C(c3ccco3)CC21 (centres unmarked) | 29.7 |
| Cc1ccc(/C(=C2\OC(=O)c3ccccc32)[N+](=O)[O-])c(C)c1 | -6.18 |
| COc1ccccc1N1CCN(CCCN2C(=O)C3CCCCN3C2=O)CC1 (centres unmarked) | -3.65 |
| CCOc1cc2c(cc1OCC)C(c1c(C)nn(C)c1Cl)NCC2 (centres unmarked) | 2.18 |
| C=CCOc1ccc(C2c3c(oc4ccc(F)cc4c3=O)C(=O)N2c2ccc(C)cn2)cc1OC (centres unmarked) | 3.73 |
| Cc1ccccc1C(=O)Nc1sc2c(c1C(=O)N1CCN(C)CC1)CCCC2 | -2.44 |
| CCCCn1c(C(Cc2ccccc2)NC(=O)COC)nc2ccccc21 (centres unmarked) | -0.58 |
| CC(C)CNS(=O)(=O)c1ccc(S(=O)(=O)N2CCN(CCC#N)CC2)cc1 | -1.82 |
| O=C(c1ccc(N2C(=O)c3ccccc3C2=O)cc1)N1CCCCCC1 | -1.61 |
| O=C(NCCN1CCOCC1)/C(=C/c1cccnc1)NC(=O)c1ccccc1 | 3.79 |
| CC(=O)Nc1nonc1-c1ccccc1 | -3.03 |
| O=C(c1cc2nc(-c3ccco3)cc(C(F)(F)F)n2n1)N1CCCC1 | -5.28 |
| Cn1c(=O)c2c(nc(SCC(=O)Nc3ccc(F)cc3)n2C)n(C)c1=O | -4.03 |
| COc1ccc(CCC(=O)Nc2ccc(C(C)C)cc2)cc1 | -8.59 |
| COc1ccc(Cl)cc1C(=O)NC1CCCCC1 | -1.61 |
| CCOc1ccc(-n2c(C)nc3cc(C(=O)NC4CC4)ccc32)cc1 | -5.64 |
| Cc1nc2cccnc2n1-c1ccc(C(=O)N2CCN(C)CC2)cc1 | 1.98 |
| CC(=O)NS(=O)(=O)c1cccnc1Nc1ccc(Cl)cc1 | 2.13 |
| O=C(CN1C(=O)c2ccccc2C1=O)N1CCCCCC1 | 2.08 |
| Cc1ccc(CNC(=O)CSc2nc3ccccc3n3cnnc23)cc1 | 0.974 |
| S=c1n(-c2ccccc2)cnn1CN1CCOCC1 | -1.25 |

| SMILES | % Inhibition @ 10 uM [%] |
| --- | --- |
| CC1CCCC(N2CCN(c3ccccc3)CC2)C1 (centres unmarked) | 3.19 |
| Cc1cc(C)c2c(=O)n(CC(=O)NC(C)CCc3ccccc3)sc2n1 (centres unmarked) | 12 |
| COCCNC(=O)/C(C#N)=C/c1c(Oc2ccc(Cl)c(C)c2)nc2ccccn2c1=O | -0.828 |
| Cl/C(=C\c1ccccc1)CN1CCN(Cc2ccccc2)CC1 | 1.26 |
| CC1C(c2ccccc2)N(C)C(c2ccccc2)C(C)C1(C)O (centres unmarked) | 2.7 |
| COc1ccccc1NC(=O)C1=C(C)N=C2CC(C)(C)CC(O)=C2C1c1ccc(Br)cc1 (centres unmarked) | 4.67 |
| COc1cccc(/C=C2\N=C(c3ccc(-c4ccccc4)cc3)OC2=O)c1 | -7.16 |
| Cc1c(C(=O)NCCO)c(-c2ccccc2)nn1-c1ccccc1 | -1.86 |
| Fc1ccc(F)c(CN2CCN(c3ccc(Cl)cc3)CC2)c1 | -0.0648 |
| CC1CCN(C(=O)COc2ccc([N+](=O)[O-])cc2)CC1 | -8.12 |
| CCCN(Cc1cc(Br)cc(Br)c1O)CC1CC1 | 0.273 |
| O=C(CCc1nnc2ccc(N3CCOCC3)nn12)N1CCC(Cc2ccccc2)CC1 | -0.264 |
| COc1ccc(C2c3sc(O)nc3SC3C(=O)N(c4ccc(C)cc4)C(=O)C32)cc1 (centres unmarked) | -2.67 |
| CCN(CC)C(=O)c1sc(NC(=O)C2c3ccccc3Oc3ccccc32)c(C(N)=O)c1C | 4.32 |
| O=c1[nH]c(/C=C\c2c[nH]c3ccccc23)c([N+](=O)[O-])c(=O)[nH]1 | 1.13 |
| CC(C)c1n[nH]c(N)n1 | -2.23 |
| C=CCNC(=O)CN(c1ccc(Oc2ccccc2)cc1)S(C)(=O)=O | 3.72 |
| O=C(OCC(c1ccccc1)c1ccccc1)C1=COCCO1 | 4.71 |
| Cc1ccccc1Cn1nc(C)c(NC(=O)c2nc3n(n2)C(C(F)F)CC(C)N3)c1C (centres unmarked) | 0.0289 |
| CC(NC(=O)C(=O)NCCc1c[nH]c2ccccc12)C(c1cccs1)N1CCOCC1 (centres unmarked) | -1.08 |
| COc1ccc(-n2cc(-c3ccccc3)c3c(NCc4ccco4)ncnc32)cc1 | 5.69 |
| COc1ccc(C(=O)Nc2ccccc2C2(C)CC2)cc1 | -2.12 |
| Cc1cccc(C(=O)Nc2cc([N+](=O)[O-])ccc2C)c1 | -5.11 |
| COc1ccc(C(=N)NOC(=O)/C=C/c2ccccc2Cl)cc1OC | 9.35 |
| CCOc1ccc(C(=O)Nc2nc(C)cs2)cc1 | -0.95 |
| COc1ccc(OC)c(CCNC(=O)CCc2nnc3n(CC(C)C)c(=O)c4ccccc4n23)c1 | 4.16 |

| SMILES | % Inhibition @ 10 uM [%] |
| --- | --- |
| C=CCSc1nc(=O)c2c(n1C)NC(=O)CC2c1cc(F)cc(F)c1 (centres unmarked) | -4.71 |
| O=C1c2ccccc2-c2nn(C(=O)c3cccnc3Cl)c3cccc1c23 | 1.62 |
| CCc1ccccc1NC(=O)c1cnccn1 | -5.11 |
| Cn1nnnc1SCc1csc(C2C(C#N)=C(N)OC3=C2C(=O)CCC3)c1 (centres unmarked) | 6.38 |
| COc1ccc(-c2cn3nc(N4CCC(C(=O)N(C)Cc5ccccc5)CC4)sc3n2)cc1 | 0.174 |
| COC(=O)c1c(C)[nH]c(C)c1-c1ccccc1Cl | -5.6 |
| Cc1cc(C)cc(N(CC(=O)NC2CC3CCC2C3)S(=O)(=O)c2ccccc2)c1 (centres unmarked) | 4.44 |
| O=C(C1CCN(S(=O)(=O)N2CCOCC2)CC1)N1CCCC1 | 3.66 |
| Cc1cc(NS(=O)(=O)c2ccccc2)no1 | 3.01 |
| Cc1cccc(-n2ncc3c(NCC4CCCO4)ncnc32)c1 (centres unmarked) | -2.45 |
| Brc1ccccc1OCCCCCCn1ccnc1 | 0.815 |
| CCCSc1nc2c(C)cccc2cc1C#N | -8.35 |
| COc1ccc(CCNC2CC(=O)N(c3ccc(F)cc3)C2=O)cc1OC (centres unmarked) | -1.57 |
| Cc1cc(Cl)ccc1OCC(=O)Nc1ccccc1C(=O)Nc1ccccc1 | -1.35 |
| CCNC1=NS(=O)(=O)C(c2ccc(C)cc2)=C1C | -1.08 |
| CSCCCN(C)CCN(C)C | -3.42 |
| CCOc1ccc(S(=O)(=O)N2CCC(C(N)=O)CC2)cc1 | -0.132 |
| COc1cccc(OC)c1C(=O)Nc1ccc(F)c(Cl)c1 | 3.44 |
| CN(CC(=O)Nc1ccc(Oc2ccccc2)cc1)S(=O)(=O)c1ccc(Br)cc1 | 2.01 |
| COc1ccc(CNCc2cc(C)c(OC)cc2C)c(OC)c1 | -2.22 |
| O=C(CSc1ccccc1C(=O)O)NCCc1ccccc1 | -6.84 |
| COc1cc(/C=C2\NC(=O)NC2=O)cc(Cl)c1OCc1cccc(C(=O)O)c1 | 3.19 |
| O=C1NC(c2ccc(O)cc2)C(C(=O)c2ccccc2)C(O)(C(F)(F)F)N1 (centres unmarked) | 0.873 |
